{"source": "paper PMC11995724", "about": "“Antibiotic target discovery by integrated phenotypic and activity-based profiling of electrophilic fragments” (Cell chemical biology, 2025)", "note": "Among all 3,200 compounds or so, about 110 (3.4%) showed an effect of 50% or more. The list shows a part of the results.", "data": [{"test_system": "T1, V. cholerae SAD30", "T1 construct": "SAD30", "set-up": "species or system S. aureus MSSA476 (TSB) or V. cholerae SAD30 (LB); 384-well bacterial growth screen at 25 uM, OD600 relative to DMSO control", "details": "relative growth, OD600, LB; 25 µM; inhibitor", "units": {"% of control remaining": "%"}, "values": [{"smiles": "N#CC(=Cc1cccs1)C(=O)NCc1ccco1", "note": "[9-L08, 2-cyano-N-[(furan-2-yl)methyl]-3-(thiophen-2-yl)prop-2-enamide]", "% of control remaining": 83.5486}, {"smiles": "C=CC(=O)N1CCOCC1c1ncnn1Cc1ccccc1", "note": "(stereo not drawn) [1-L12, 1-[3-(1-benzyl-1H-1,2,4-triazol-5-yl)morpholin-4-yl]prop-2-en-1-one]", "% of control remaining": 59.1266}, {"smiles": "C=CC(=O)Nc1ccc(OC)cc1S(C)(=O)=O", "note": "[1-C04, N-(2-methanesulfonyl-4-methoxyphenyl)prop-2-enamide]", "% of control remaining": 101.794}, {"smiles": "CC1CN(CCCNC(=O)CCl)CC(C)O1.Cl", "note": "(stereo not drawn) [6-G11, 2-chloro-N-[3-(2,6-dimethylmorpholin-4-yl)propyl]acetamide hydrochloride]", "% of control remaining": 83.2686}, {"smiles": "C=CC(=O)NCc1nncn1-c1ccccc1", "note": "[1-G07, N-[(4-phenyl-4H-1,2,4-triazol-3-yl)methyl]prop-2-enamide]", "% of control remaining": 92.6756}, {"smiles": "C=CC(=O)Nc1ccc(C(=O)N2CCC[C@@H]2C(=O)OC)cc1", "note": "[2-E21, methyl (2R)-1-[4-(prop-2-enamido)benzoyl]pyrrolidine-2-carboxylate]", "% of control remaining": 99.9228}, {"smiles": "Cc1ccc(C=C(C#N)C(=O)Nc2c(Cl)cccc2Cl)o1", "note": "[9-N21, 2-cyano-N-(2,6-dichlorophenyl)-3-(5-methylfuran-2-yl)prop-2-enamide]", "% of control remaining": 79.3338}, {"smiles": "O=C(CCl)c1cscn1", "note": "[10-L08, 2-chloro-1-(1,3-thiazol-4-yl)ethan-1-one]", "% of control remaining": 0}, {"smiles": "C=CC(=O)Nc1ccc(C(=O)N2CCCC2C(=O)NC2CC2)cc1", "note": "(stereo not drawn) [2-I21, N-cyclopropyl-1-[4-(prop-2-enamido)benzoyl]pyrrolidine-2-carboxamide]", "% of control remaining": 105.79}, {"smiles": "CC(C)NC(=O)C(C#N)=Cc1ccccc1OC(C)C", "note": "[9-C15, 2-cyano-N-(propan-2-yl)-3-[2-(propan-2-yloxy)phenyl]prop-2-enamide]", "% of control remaining": 83.5486}, {"smiles": "C=CC(=O)N(Cc1cn(CC)nc1C)C1CC1", "note": "[2-D13, N-cyclopropyl-N-[(1-ethyl-3-methyl-1H-pyrazol-4-yl)methyl]prop-2-enamide]", "% of control remaining": 91.5854}, {"smiles": "C=CC(=O)N1CCC(C(=O)N2CCC(OC)(C(F)(F)F)CC2)CC1", "note": "[3-E08, 1-{4-[4-methoxy-4-(trifluoromethyl)piperidine-1-carbonyl]piperidin-1-yl}prop-2-en-1-one]", "% of control remaining": 101.088}, {"smiles": "CC(C)NC(=O)C(C#N)=Cc1cccc(F)c1F", "note": "[9-J20, 2-cyano-3-(2,3-difluorophenyl)-N-(propan-2-yl)prop-2-enamide]", "% of control remaining": 89.8029}, {"smiles": "COc1cc(C=C(C#N)C(=O)NC(C)C)cc(OC)c1", "note": "[8-F15, 2-cyano-3-(3,5-dimethoxyphenyl)-N-(propan-2-yl)prop-2-enamide]", "% of control remaining": 73.3515}, {"smiles": "O=C(CCl)NC1CCN(C(=O)COc2ccccc2)C1", "note": "(stereo not drawn) [7-L03, 2-chloro-N-[1-(2-phenoxyacetyl)pyrrolidin-3-yl]acetamide]", "% of control remaining": 100.446}, {"smiles": "N#CC(=Cc1ccccc1[N+](=O)[O-])C(=O)Nc1ccc2c(c1)OCCO2", "note": "[9-O20, 2-cyano-N-(2,3-dihydro-1,4-benzodioxin-6-yl)-3-(2-nitrophenyl)prop-2-enamide]", "% of control remaining": 84.5003}, {"smiles": "CC(Cl)C(=O)NCC(c1ccccc1)c1nnc[nH]1", "note": "(stereo not drawn) [7-G15, 2-chloro-N-[2-phenyl-2-(4H-1,2,4-triazol-3-yl)ethyl]propanamide]", "% of control remaining": 78.6387}, {"smiles": "C=CC(=O)N(C)CC(=O)Nc1ccc(C)c(S(=O)(=O)N(C)C)c1", "note": "[3-G04, N-({[3-(dimethylsulfamoyl)-4-methylphenyl]carbamoyl}methyl)-N-methylprop-2-enamide]", "% of control remaining": 98.265}, {"smiles": "COc1ccc(C2CCCN2C(=O)CCl)cc1OC", "note": "(stereo not drawn) [6-M03, 2-chloro-1-[2-(3,4-dimethoxyphenyl)pyrrolidin-1-yl]ethan-1-one]", "% of control remaining": 100.256}, {"smiles": "CC(Cl)C(=O)c1ccc(NC(=O)C(C)(C)C)cc1", "note": "(stereo not drawn) [10-M06, N-[4-(2-chloropropanoyl)phenyl]-2,2-dimethylpropanamide]", "% of control remaining": 98.9675}, {"smiles": "N#CC(=Cc1cccc(F)c1)C(=O)Nc1ccc(SC(F)F)cc1", "note": "[9-N17, 2-cyano-N-{4-[(difluoromethyl)sulfanyl]phenyl}-3-(3-fluorophenyl)prop-2-enamide]", "% of control remaining": 67.3691}, {"smiles": "CC(Cl)C(=O)c1ccc(NS(C)(=O)=O)cc1", "note": "(stereo not drawn) [10-A08, N-[4-(2-chloropropanoyl)phenyl]methanesulfonamide]", "% of control remaining": 98.4999}, {"smiles": "CCc1nocc1CN(C)C(=O)CCl", "note": "[5-B11, 2-chloro-N-[(3-ethyl-1,2-oxazol-4-yl)methyl]-N-methylacetamide]", "% of control remaining": 90.6168}, {"smiles": "C=CC(=O)N(C)Cc1cccc(Cl)c1", "note": "[2-G09, N-[(3-chlorophenyl)methyl]-N-methylprop-2-enamide]", "% of control remaining": 91.1223}, {"smiles": "C=CC(=O)NCC1CSCCS1", "note": "(stereo not drawn) [1-K07, N-[(1,4-dithian-2-yl)methyl]prop-2-enamide]", "% of control remaining": 89.6861}, {"smiles": "CCCn1c(C)cc(C=C(C#N)C(=O)N2CCCCC2)c1C", "note": "[9-D11, 3-(2,5-dimethyl-1-propyl-1H-pyrrol-3-yl)-2-(piperidine-1-carbonyl)prop-2-enenitrile]", "% of control remaining": 57.308}, {"smiles": "COc1cc(NC(=O)CCl)c(Cl)cc1C(=O)O", "note": "[4-M17, 5-chloro-4-(2-chloroacetamido)-2-methoxybenzoic acid]", "% of control remaining": 98.857}, {"smiles": "C=CC(=O)N(Cc1cn(C2CCC2)nn1)c1ccc(F)cc1", "note": "[1-G09, N-[(1-cyclobutyl-1H-1,2,3-triazol-4-yl)methyl]-N-(4-fluorophenyl)prop-2-enamide]", "% of control remaining": 88.1913}, {"smiles": "C=CC(=O)N1CC(c2cc(CO)on2)C1", "note": "[1-K20, 1-{3-[5-(hydroxymethyl)-1,2-oxazol-3-yl]azetidin-1-yl}prop-2-en-1-one]", "% of control remaining": 100.299}, {"smiles": "C=CC(=O)N1CCC(C(=O)N(C)C2CCCc3c2cnn3C)CC1", "note": "(stereo not drawn) [2-P12, N-methyl-N-(1-methyl-4,5,6,7-tetrahydro-1H-indazol-4-yl)-1-(prop-2-enoyl)piperidine-4-carboxamide]", "% of control remaining": 97.2981}, {"smiles": "CC(Cl)C(=O)NCc1cc2sccc2s1", "note": "(stereo not drawn) [6-B07, 2-chloro-N-({thieno[3,2-b]thiophen-2-yl}methyl)propanamide]", "% of control remaining": 91.4589}, {"smiles": "CC(Cl)C(=O)N1CC(S(=O)(=O)c2ccccc2F)C1", "note": "(stereo not drawn) [7-M15, 2-chloro-1-[3-(2-fluorobenzenesulfonyl)azetidin-1-yl]propan-1-one]", "% of control remaining": 82.075}, {"smiles": "CC(Cl)C(=O)N1CCCN(C)c2cc(F)ccc21", "note": "(stereo not drawn) [6-N16, 2-chloro-1-(7-fluoro-5-methyl-2,3,4,5-tetrahydro-1H-1,5-benzodiazepin-1-yl)propan-1-one]", "% of control remaining": 82.8135}, {"smiles": "C=CC(=O)N(C)CC(=O)NCc1c(O)nnc(C)c1C", "note": "[2-I20, N-({[(3-hydroxy-5,6-dimethylpyridazin-4-yl)methyl]carbamoyl}methyl)-N-methylprop-2-enamide]", "% of control remaining": 95.9085}, {"smiles": "Cc1c(CN(CC2CC=CCC2)C(=O)CCl)cnn1C", "note": "(stereo not drawn) [5-C14, 2-chloro-N-[(cyclohex-3-en-1-yl)methyl]-N-[(1,5-dimethyl-1H-pyrazol-4-yl)methyl]acetamide]", "% of control remaining": 92.9705}, {"smiles": "C=CC(=O)N1CCC(C(=O)NCc2ncccc2OC)CC1", "note": "[3-H05, N-[(3-methoxypyridin-2-yl)methyl]-1-(prop-2-enoyl)piperidine-4-carboxamide]", "% of control remaining": 97.03}, {"smiles": "O=C(O)C1CCN(C(=O)CCl)CC1", "note": "[6-O11, 1-(2-chloroacetyl)piperidine-4-carboxylic acid]", "% of control remaining": 91.0039}, {"smiles": "C=CC(=O)Nc1ccc2c(c1)OCCCO2", "note": "[1-G20, N-(3,4-dihydro-2H-1,5-benzodioxepin-7-yl)prop-2-enamide]", "% of control remaining": 89.6861}, {"smiles": "Cc1ccc(NC(=O)NC(=O)C(C)Cl)c(C)c1", "note": "(stereo not drawn) [6-J04, 3-(2-chloropropanoyl)-1-(2,4-dimethylphenyl)urea]", "% of control remaining": 87.2121}, {"smiles": "C=CC(=O)N1CCC(C2CCOC2)C1", "note": "(stereo not drawn) [1-H06, 1-[3-(oxolan-3-yl)pyrrolidin-1-yl]prop-2-en-1-one]", "% of control remaining": 121.933}, {"smiles": "CCCCNC(=O)C(C#N)=Cc1cccc(Cl)c1Cl", "note": "[9-H11, N-butyl-2-cyano-3-(2,3-dichlorophenyl)prop-2-enamide]", "% of control remaining": 86.1319}, {"smiles": "C=CC(=O)NC1CCCCC12CCCC2", "note": "(stereo not drawn) [1-F16, N-{spiro[4.5]decan-6-yl}prop-2-enamide]", "% of control remaining": 65.5054}, {"smiles": "C=CC(=O)NCc1ccc(F)c(F)c1", "note": "[1-C10, N-[(3,4-difluorophenyl)methyl]prop-2-enamide]", "% of control remaining": 88.7892}, {"smiles": "C=CC(=O)N(C)CC(=O)N1CCN(C(=O)c2cccc(O)c2)CC1", "note": "[2-J22, N-{2-[4-(3-hydroxybenzoyl)piperazin-1-yl]-2-oxoethyl}-N-methylprop-2-enamide]", "% of control remaining": 107.951}, {"smiles": "COc1cccc(CN(C(=O)CCl)C23CC4CC(CC(C4)C2)C3)c1", "note": "[5-E05, N-(adamantan-1-yl)-2-chloro-N-[(3-methoxyphenyl)methyl]acetamide]", "% of control remaining": 70.4424}]}]}
